Laboratory results from PubChem BioAssay AID1745845 (National Center for Advancing Translational Sciences (NCATS), 2022).
“And” between values parts separate entries of the source, which are not always exact repeats. Equal values may be shown once. In all, about 360,000 compounds went through this assay and about 2,600 (0.72%) were called active. The inconclusive results got no clear call from the source; some entries with a clear call stand among them for comparison. Calls follow the shape of the dose curve; as a rule, active = well fitted inhibition curve with a large enough effect; inconclusive = small, poorly fitted or top-dose-only effect; inactive = no such curve, though single readings can be large or run the other way. Potencies of inconclusive entries are doubtful fits and often do not repeat.
Potency is read from the fitted curve at half-maximal effect; tags tell the direction and shape of the fitted curve.

Test: Primary qHTS for Inhibitors of ATXN expression; also: nearly all actives have a fitted effect of over 55% in size
Settings: HEK-293 ATXN2-luciferase reporter, luminescence, 24 h; series mostly up to 57 µM
In short: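 qHTS (up to 57 uM final) was run with 24 h compound exposure of reporter cells at 37 °C. Each well was multiplexed: SteadyGlo luminescence measured ATXN2-luciferase expression after a fluorogenic Gly-Phe-AFC viability readout (25 uM final).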
In the case of `Cc1nn(C(C)C)c(C)c1CN1CCCC(C(=O)c2cccc(OC(C)C)c2)C1` (configuration not stated), the Potency is reported as inconclusive: 31.6 µM [inhibitor, partial curve, poor fit].
With `COc1ccc(CCC(C)NC2C3CC4CC(C3)CC2C4)cc1` (configuration not stated) the Potency was “inactive”.
For `COc1cc(O)ccc1-c1nc2cc(C)ccn2c1Nc1ccccc1C`, the Potency was inconclusive: 39.8 µM [inhibitor, single point].
With `Cc1cc(C)nc(N/N=C2/CCSc3ccc(F)cc32)n1` the Potency was inconclusive: 10 µM [inhibitor, partial curve, poor fit].
For `Cc1cc(F)ccc1C(O)c1ncc(-c2ccc(Oc3ccccc3)cc2)[nH]1` (configuration not stated), the Potency was inconclusive: 39.8 µM [inhibitor, single point].
In the case of `Cc1ccc(C)c(CSc2cn(CCNC(=O)c3cccs3)c3ccccc23)c1`, the Potency is reported as inconclusive: 39.8 µM [inhibitor, single point].
In the case of `C[C@@H]1CN([C@@H](C)CO)C(=O)CCCn2nncc2CO[C@H]1CN(C)Cc1ccc(-c2ccccc2)cc1`, the Potency is reported as inconclusive: 35.5 µM [inhibitor, single point].
For `O=C(Nc1ccc(Cl)c(Cl)c1)c1cccc(S(=O)(=O)NCc2cccnc2)c1`, the Potency was inconclusive: 29.9 µM [inhibitor, partial curve, poor fit].
With `Cc1ccc(NC(=O)CCc2c(C)nc3ncnn3c2C)cc1Cl` the Potency was “inactive”.
In the case of `O=[N+]([O-])c1ccc(-c2ccc(S(=O)(=O)NCCN3CCCC3)cc2)cc1`, the Potency is reported as inconclusive: 3.55 µM [inhibitor, full curve].
In the case of `COc1ccc(-c2nc(-c3ccc(NC(=O)c4ccncc4)cc3)no2)cc1OC`, the Potency is reported as inconclusive: 4.47 µM [inhibitor, full curve].
For `CCc1cc(C(=O)NCC(c2ccc(OC)cc2)N2CCOCC2)sc1C` (configuration not stated), the Potency was “inactive”.
In the case of `CC(C)(C)C(=O)Nc1ccc2nc(SCCOc3ccccc3Cl)sc2c1`, the Potency is reported as inconclusive: 31.6 µM [inhibitor, partial curve, poor fit].
With `COc1ccc(CCn2c(=S)[nH]c3cc(C(=O)N4CCOCC4)ccc3c2=O)cc1OC` the Potency was inconclusive: 1.19 µM [inhibitor, partial curve, poor fit].
In the case of `Cc1cc2nc(SCC(=O)Nc3nonc3C)c3c(c2cc1C)CCCC3`, the Potency is reported as inconclusive: 25.1 µM [inhibitor, single point].
With `COc1ccc(CNCCC2(Cc3ccccc3)CC(C)N(C)CC2C)cc1OC` (configuration not stated) the Potency was inconclusive: 37.7 µM [inhibitor, single point].
With `Cc1ccccc1N=C(NOCc1ccc(Cl)cc1Cl)c1nonc1N` the Potency was inconclusive: 39.8 µM [inhibitor, single point].
For `N#Cc1ccc(/C=C\c2nccc3c2[nH]c2ccccc23)cc1`, the Potency was inconclusive: 37.7 µM [inhibitor, single point].
For `COc1ccc(-c2cc(-c3ccc4c(c3)NC(=O)CO4)nc3c2COc2ccc(C)cc2-3)cc1`, the Potency was “inactive”.
For `CC[C@H](C)/C=C/C1=CC2=C(Cl)C(=O)[C@@]3(C)OC(=O)C(C(=O)[C@H](C)[C@@H](C)O)=C3C2=CO1`, the Potency was inconclusive: 23.8 µM [inhibitor, partial curve].
With `O=C(NC1=NCCS1)C1CCN(S(=O)(=O)c2ccccc2C(F)(F)F)CC1` the Potency was “inactive”.
In the case of `CCCCN(Cc1ccco1)C(=O)c1cc2c(s1)-c1c(C)cccc1OC2`, the Potency is reported as inconclusive: 28.2 µM [inhibitor, single point].
With `Cc1[nH]nc2nc(SCC(=O)NC3CCCCC3)n(-c3ccc(Br)cc3)c(=N)c12` the Potency was active: 12.6 µM.
In the case of `CCc1ccc(S(=O)(=O)N2CCN(c3ccc(Cl)c(Cl)c3)CC2)cc1`, the Potency is reported as “inactive”.
In the case of `Cc1ccccc1Cn1c(=O)n(CCC(=O)NCc2ccc3c(c2)OCO3)c(=O)c2ccccc21`, the Potency is reported as inconclusive: 39.8 µM [inhibitor, partial curve, poor fit].
With `CCOc1cccc(C(=O)Nc2ccc(-c3nc4cc(C)cc(C)c4o3)cc2)c1` the Potency was inconclusive: 10 µM [inhibitor, partial curve, poor fit].
With `NS(=O)(=O)c1ccc(CCNc2nc3c(-c4cccc(F)c4)nnn3c3ccccc23)cc1` the Potency was inconclusive: 5.62 µM [inhibitor, partial curve].
For `CCn1c(=O)cc(SCC(=O)Nc2cc(Cl)ccc2OC)c2ccccc21`, the Potency was inconclusive: 39.8 µM [inhibitor, single point].
With `Cc1ccc(C(=O)N2CCN(c3ccc([N+](=O)[O-])c(NCc4ccco4)c3)CC2)cc1` the Potency was inconclusive: 2.82 µM [inhibitor, partial curve, poor fit].
For `O=C(NCCOc1ccccc1Cl)C(=O)c1c[nH]c2ccccc12`, the Potency was “inactive”.
In the case of `CCC(=O)N1CCCc2cc(S(=O)(=O)N3CCN(c4ccccc4F)CC3)ccc21`, the Potency is reported as inconclusive: 2.12 µM [inhibitor, partial curve, poor fit].
With `c1ccc(OCCn2c(-c3ccco3)nc3ccccc32)cc1` the Potency was “inactive”.
With `Cc1cc(C)c(S(=O)(=O)/N=C2\C=C(Nc3ccc(C(=O)O)cc3)C(=O)c3ccccc32)c(C)c1` the Potency was active: 28.2 µM.
In the case of `CC(C)CC(N)c1csc(Nc2cc(Oc3ccccc3)ncn2)n1` (configuration not stated), the Potency is reported as active: 25.1 µM.
In the case of `COc1ccc(CN2CCC(N(CCc3ccccc3)Cc3ccccc3)CC2)c(OC)c1`, the Potency is reported as inconclusive: 18.9 µM [inhibitor, partial curve].
For `O=C(NCC1(N2CCCCC2)CCCCC1)c1cccc(S(=O)(=O)Nc2ccc(F)cc2)c1`, the Potency was “inactive”.
For `COc1cccc(N2CCN(CC(=O)Nc3ccc(S(=O)(=O)N4CCCCCC4)cc3)CC2)c1`, the Potency was “inactive”.
In the case of `CCCC(=O)NC(c1ccc(C(C)C)cc1)c1ccc2cccnc2c1O` (configuration not stated), the Potency is reported as inconclusive: 3.16 µM [inhibitor, partial curve, poor fit].
In the case of `CC(Nc1nc(-c2ccc(F)cc2)cs1)c1nc2cc(Cl)c(Cl)cc2n1CCCO` (configuration not stated), the Potency is reported as inconclusive: 39.8 µM [inhibitor, single point].
For `CCCCCCCNC(=O)C1(CC2CC(c3cccc(Br)c3)=NO2)CCN(C(=O)CCCCCBr)CC1` (configuration not stated), the Potency was inconclusive: 35.5 µM [inhibitor, single point].
For `C[C@H](CO)N1C[C@H](C)[C@@H](CN(C)C(=O)Nc2ccc(C(F)(F)F)cc2)Oc2ccc(NC(=O)Nc3ccc(C(F)(F)F)cc3)cc2C1=O`, the Potency was inconclusive: 39.8 µM [inhibitor, partial curve, poor fit].
In the case of `CCCCN(C)C(=O)c1oc2ccc(S(=O)(=O)N3CCCCCC3)cc2c1C`, the Potency is reported as inconclusive: 31.6 µM [inhibitor, single point].
With `NS(=O)(=O)OC[C@@H]1C[C@@H](n2ccc3c(N[C@H]4CCc5ccccc54)ncnc32)C[C@H]1O` the Potency was inconclusive: 3.85 µM [inhibitor, full curve].
For `Cc1ccc(NC(=O)COC(=O)c2c(-c3ccccc3)noc2C)cc1`, the Potency was “inactive”.
For `COC(=O)C1=C(C(=O)OC)[C@@H]2N(Cc3ccccc3)c3ccccc3[C@@]23C[C@@H](C(=O)OC)N(C(=O)c2cc(C)oc2C)C3=N1`, the Potency was inconclusive: 17.8 µM [inhibitor, partial curve, poor fit].
With `N=C(N)c1ccc(OCCCCCOc2ccc(C(=N)N)cc2)cc1` the Potency was inconclusive: 35.5 µM [inhibitor, partial curve, poor fit] and inconclusive: 9.68 µM [inhibitor, full curve] and inconclusive: 20 µM [inhibitor, partial curve, poor fit].
With `CCOc1cc(/C=C2/NC(=O)N(CC(=O)Nc3cccc(C)c3)C2=O)ccc1OC` the Potency was inconclusive: 10 µM [inhibitor, partial curve, poor fit].
In the case of `Cc1ccc(N/N=C(/Sc2nnnn2-c2ccccc2)C(=O)c2ccccc2)cc1`, the Potency is reported as “inactive”.
In the case of `COc1ccc(/C=C/c2c([N+](=O)[O-])c(=O)n(C)c(=O)n2C)c(OC)c1`, the Potency is reported as inconclusive: 21.2 µM [inhibitor, partial curve, poor fit].
For `NC1=NN=C(c2ccc3c(c2)OCCO3)CS1`, the Potency was inconclusive: 21.2 µM [inhibitor, single point].
With `C[n+]1c2n(c3ccccc31)N=C(c1ccc(Br)cc1)CS2` the Potency was inconclusive: 14.1 µM [inhibitor, partial curve].
In the case of `COc1ccc(C=NNC(=S)Nc2ccc(F)cc2)cc1OC`, the Potency is reported as inconclusive: 20 µM [inhibitor, single point].
For `c1ccc(Sc2cccc3ccccc23)c(CNC2=NCCN2)c1`, the Potency was inconclusive: 15.8 µM [inhibitor, single point].
With `COCCCn1nnnc1SCC(=O)Nc1ccc2c(c1)OCCO2` the Potency was inconclusive: 2.67 µM [inhibitor, partial curve, poor fit].
With `Cc1ccc(Nc2nc(CSc3nnc(-c4ccncc4)n3-c3ccccc3C)cs2)cc1` the Potency was inconclusive: 39.8 µM [inhibitor, single point].
For `O=C(NCCN1CCN(c2ccccc2)CC1)Nc1ccc(Cl)cc1`, the Potency was “inactive”.
With `O=C(CSc1nc(=O)n(Cc2ccco2)c2c1CCC2)Nc1cccc(F)c1` the Potency was inconclusive: 28.2 µM [inhibitor, single point].
In the case of `C[C@H](NC(=O)CCCn1nnc2ccccc2c1=O)C(=O)O`, the Potency is reported as “inactive”.
For `O=C(c1ccc(F)cc1F)C1CCN(c2ccc([N+](=O)[O-])cn2)CC1`, the Potency was inconclusive: 5.01 µM [inhibitor, full curve, poor fit].
In the case of `Cc1ccc(NC(=O)NC2CC(=O)N(c3ccc4c(c3)OCCO4)C2)cc1` (configuration not stated), the Potency is reported as “inactive”.
For `Cc1ccc(N2CC(C(=O)N3CCOCC3)CC2=O)cc1Cl` (configuration not stated), the Potency was “inactive”.
In the case of `CCCCC(=O)O[C@H]1CC[C@H]2[C@@H]3CCc4cc(O)ccc4[C@H]3CC[C@]12C`, the Potency is reported as inconclusive: 31.6 µM [inhibitor, single point].
